Reference: PubChem BioAssay AID1768 (National Center for Advancing Translational Sciences (NCATS), 2009)
The campaign covered roughly 270,000 compounds. About 620 (0.23%) were called active. This list was built around the results that the source calls inconclusive (neither active nor inactive); the mix of calls is not that of the screen. Calls follow the shape of the dose curve; as a rule, active = well fitted inhibition curve with a large enough effect in the polarisation, with a control signal flat (not every such curve was filed as active); inconclusive = small, poorly fitted or top-dose-only effect, or effect the other way, or a change in a side signal; inactive = no such curve, though single readings can be large or run the other way; the % refers to the polarisation. Where the call is inconclusive, the potency comes from a doubtful curve fit. “Side channel” marks fits to a control or component signal instead of the main read-out.

Each compound was assayed against Menin (Homo sapiens) (UniProt O00255) (assay: qHTS Assay for Inhibitors Targeting the Menin-MLL Interaction in MLL Related Leukemias: Competition With Texas Red Labeled MLL-derived Mutant Peptide). Details: fluorescence polarization; FP activity change, negative = inhibition: at 61.6 µM (top of the series).
For FP activity change, negative = inhibition in this document: % of control where 0% means no effect.
Potency is read from the fitted curve at half-maximal effect; tags tell the direction and shape of the fitted curve or compound fluorescence and quenching.

Sequence of UniProt O00255 (O00255 whole entry, looked up): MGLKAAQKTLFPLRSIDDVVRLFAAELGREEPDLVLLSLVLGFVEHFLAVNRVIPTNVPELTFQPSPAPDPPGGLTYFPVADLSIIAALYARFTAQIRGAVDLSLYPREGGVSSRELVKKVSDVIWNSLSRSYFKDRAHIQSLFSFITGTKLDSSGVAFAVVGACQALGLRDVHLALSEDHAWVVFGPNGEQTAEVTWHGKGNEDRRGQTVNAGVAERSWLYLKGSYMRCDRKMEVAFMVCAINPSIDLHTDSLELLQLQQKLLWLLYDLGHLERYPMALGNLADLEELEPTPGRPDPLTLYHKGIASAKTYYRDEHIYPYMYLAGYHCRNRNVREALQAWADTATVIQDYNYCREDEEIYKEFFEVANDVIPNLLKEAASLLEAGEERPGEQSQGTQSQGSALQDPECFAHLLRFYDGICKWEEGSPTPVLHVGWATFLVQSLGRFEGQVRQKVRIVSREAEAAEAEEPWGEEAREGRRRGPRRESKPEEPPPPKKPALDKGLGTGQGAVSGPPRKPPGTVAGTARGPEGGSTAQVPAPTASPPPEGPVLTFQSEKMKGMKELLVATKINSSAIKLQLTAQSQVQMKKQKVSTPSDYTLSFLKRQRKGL

SMILES	Potency	FP activity change, negative = inhibition
COCCn1c(-c2cccs2)nc2c(c(=O)c3ccccc3n2C)c1=O	inconclusive: 11.2 µM [inhibitor, partial curve]	–
COc1ccccc1[C@H]1C(c2cccc(C)c2)=NN(c2ccccc2)[C@@H]1CO	inconclusive: 28.2 µM [quencher, side channel, single point]	–
CCOc1ccc(N/C=C/C(=O)c2ccc(OC)cc2)c([N+](=O)[O-])c1	inconclusive: 3.55 µM [inhibitor, partial curve]	–
N#C/C(=C\c1ccccc1)C(=O)N1CCN(c2ccccc2F)CC1	inconclusive: 11.2 µM [inhibitor, partial curve]	–
COc1ccc(CC(=O)N2CCN(C(=O)Cc3ccc(OC)cc3)CC2)cc1	–	inactive: -28.9%
O=C(NCc1ccco1)c1cccnc1-c1nc2ccccc2s1	inconclusive: 35.5 µM [quencher, side channel, single point]	–
CCc1ccc(-c2cc(C(=O)O)c3ccccc3n2)s1	inconclusive: 28.2 µM [quencher, side channel, single point]	–
Cc1ccc(NCC(=O)Nc2ccc(Br)cc2)cc1F	inconclusive: 39.8 µM [quencher, side channel, single point]	–
O=C(CCCCn1c(=O)[nH]c2ccsc2c1=O)NCCc1ccccc1	inconclusive: 39.8 µM [inhibitor, single point]	–
CC(C)(C)OC(=O)N1CCC(c2c(C(=O)NCC3CCN(C4CCCC4)C3)cnn2-c2cccc(Cl)c2)CC1 (configuration not stated)	inconclusive: 11.2 µM [fluorescent, side channel, partial curve]	–
O=C(Oc1ccc(C(=S)N2CCOCC2)cc1)c1ccc(Br)cc1	–	inactive: -9.07%
O=C(O)c1cc(-c2ccc(/C=N/Nc3ccc([N+](=O)[O-])cn3)o2)ccc1Cl	inconclusive: 11.2 µM [quencher, side channel, partial curve]	–
O=C(N/N=C/c1ccc(-c2cccc(C(F)(F)F)c2)o1)c1ccccc1O	inconclusive: 14.1 µM [quencher, side channel, partial curve]	–
CCCN1CCc2c(sc3nc(SCC)n(-c4ccccc4)c(=O)c23)C1	inconclusive: 2 µM [fluorescent, side channel, partial curve]	–
CN(C)CC/C=C1\c2ccccc2COc2ccc(CC(=O)O)cc21	–	inactive: -6.51%
O=C(N/N=C/c1ccc(O)cc1)c1ccc(COc2cc(Cl)ccc2Cl)o1	inconclusive: 10 µM [quencher, side channel, partial curve]	–
CC1CCCN(CC(O)COc2ccc(-c3ccccc3)cc2)C1 (configuration not stated)	inconclusive: 39.8 µM [inhibitor, single point]	–
COC(=O)c1ccccc1NC(=O)CN1CCN(Cc2ccccc2)CC1	inconclusive: 12.6 µM [fluorescent, side channel, partial curve]	–
CCCCCC/C=N/Nc1nnc(Cc2ccc(OC)c(OC)c2)c(=O)[nH]1	inconclusive: 2.51 µM [fluorescent, side channel, full curve, poor fit]	–

SMILES	Potency	FP activity change, negative = inhibition
Nc1nc(Cl)cc(Oc2ccc(Cl)cc2)n1	inconclusive: 31.6 µM [fluorescent, side channel, single point]	–
C=CCc1cc(/C=C/c2nc(O)c([N+](=O)[O-])c(=O)[nH]2)cc(OC)c1O	inconclusive: 39.8 µM [quencher, side channel, single point]	–
CCCC(=O)c1ccc(N2CCCCCC2)c(F)c1	inconclusive: 10 µM [fluorescent, side channel, partial curve]	–
O=C(CNc1ccc(Cl)cc1)NNC(=S)NCc1ccccc1	inconclusive: 10 µM [quencher, side channel, partial curve]	–
COc1ccc(NCc2ccc([N+](=O)[O-])s2)c(OC)c1	–	inactive: 9.85%
CC1(C)C(=O)C2(CCCCC2)C(=O)OC1c1cccn1-c1ccc([N+](=O)[O-])cc1 (configuration not stated)	–	inactive: -13.9%
CC(=O)[C@@]12O[C@@H]1C[C@H]1[C@@H]3CC[C@H]4C[C@@H](O)CC[C@]4(C)[C@H]3CC[C@@]12C	inconclusive: 3.16 µM [inhibitor, partial curve]	–
COc1ccc(C=C2C(=O)c3ccccc3C2=O)cc1O	inconclusive: 3.98 µM [quencher, side channel, full curve]	–
COC(=O)[C@@]1(Cc2ccc(F)cc2)[C@H]2c3cc(C(=O)N(C)C)n(CC4CC4)c3C[C@H]2CN1C(=O)c1ccccc1	inconclusive: 6.31 µM [fluorescent, side channel, partial curve]	–
CCc1c(C)[nH]n(-c2nc(-c3cccc([N+](=O)[O-])c3)cs2)c1=O	inconclusive: 39.8 µM [quencher, side channel, single point]	–
Cc1ccc(Oc2cc(NC(=O)CCCn3nc([N+](=O)[O-])c(Cl)c3C)cc([N+](=O)[O-])c2)cc1	inconclusive: 8.91 µM [quencher, side channel, full curve, poor fit]	–
COc1ccccc1Nc1nc(-c2ccccc2O)nc2ccccc12	inconclusive: 3.16 µM [quencher, side channel, full curve]	–
COc1ccc(NC(=O)CN(C)S(=O)(=O)c2ccc(Br)s2)cc1	inconclusive: 39.8 µM [fluorescent, side channel, single point]	–
COc1ccc(C)cc1-n1nnnc1SC/C(O)=C(\C#N)c1nc2ccccc2[nH]1	inconclusive: 39.8 µM [quencher, single point]	–
Cc1c(/C=N/NC(=O)c2ccccc2O)c2ccccn2c1C(=O)c1ccc(F)cc1	inconclusive: 2.51 µM [quencher, side channel, partial curve]	–
CCOc1ccc2nc(N(CCCN(C)C)C(=O)c3ccc(S(=O)(=O)N4CCCC4)cc3)sc2c1	inconclusive: 28.2 µM [fluorescent, side channel, partial curve]	–
Cc1cc(Br)ccc1NC(=O)CCSc1ccccc1	inconclusive: 35.5 µM [fluorescent, side channel, single point]	–
CC(=O)NN1C(=O)/C(=C\c2ccc(C)cc2)SC1=S	inconclusive: 8.91 µM [inhibitor, single point]	–
O=C(OCc1cc(=O)n2c(n1)sc1ccccc12)c1ccc(O)cc1O	inconclusive: 14.1 µM [quencher, side channel, partial curve]	–

SMILES	Potency	FP activity change, negative = inhibition
COc1ccc(CN=Cc2[nH]c3ccc(Br)c(Cl)c3c2O)cc1	inconclusive: 28.2 µM [quencher, side channel, single point]	–
N#C/C(=C\c1ccc(N2CCOCC2)o1)c1nc2ccccc2[nH]1	inconclusive: 35.5 µM [fluorescent, side channel, single point]	–
CCN(CC)C(=O)c1ccc(C(=O)c2c(C)cc(C)cc2C)cc1	inconclusive: 3.16 µM [fluorescent, side channel, full curve]	–
COc1cccc(OC)c1CN1CCCC(C(=O)c2ccccc2SC)C1 (configuration not stated)	inconclusive: 2.82 µM [fluorescent, side channel, full curve, poor fit]	–
O=C(CNC(=O)c1ccccc1)NCCc1ccc(O)c(O)c1	inconclusive: 2.51 µM [inhibitor, full curve, poor fit]	–
Cc1cccc(N(Cc2cc(=O)[nH]c3ccccc23)C(=O)CCl)c1	inconclusive: 10 µM [inhibitor, partial curve]	–
CCN1CCN(C2=CC3=CC(=C(C#N)C#N)CCC3CC2)CC1 (configuration not stated)	–	inactive: -0.278%
O=Cc1cc(Cl)ccc1OCCN1CCC(Cc2ccccc2)CC1	inconclusive: 22.4 µM [fluorescent, side channel, single point]	–
O=S(=O)(NC1CC(NS(=O)(=O)OCC(Cl)(Cl)Cl)C2CCCCC12)OCC(Cl)(Cl)Cl (configuration not stated)	inconclusive: 15.8 µM [quencher, side channel, partial curve]	–
O=C(NNc1c2ccccc2nc2ccccc12)c1cc2ccccc2cc1O	inconclusive: 8.91 µM [quencher, side channel, full curve]	–
CCCCC1(C)OC(=O)C(=Cc2c[nH]c3ccccc23)C(=O)O1 (configuration not stated)	inconclusive: 28.2 µM [quencher, side channel, single point]	–
CC(C)c1ccc(/C=C/C(=O)NCc2ccc(S(N)(=O)=O)cc2)cc1	inconclusive: 39.8 µM [fluorescent, side channel, single point]	–
CCOC(=O)C[n+]1c(C)csc1C	–	inactive: 7.44%
Cc1ccc(CNc2oc(-c3cccs3)nc2C#N)cc1	–	inactive: 14.3%
C=CCn1c(SCn2nnc3ccccc3c2=O)nc2scc(-c3cccs3)c2c1=O	inconclusive: 39.8 µM [inhibitor, single point]	–
CC(=O)c1ccc(NC(=O)CN2C(=O)/C(=C/C(C)=C/c3ccccc3)SC2=S)cc1	inconclusive: 11.2 µM [quencher, side channel, partial curve]	–
CC(C)C(=O)Nc1cccc(C(=O)OCC(=O)c2ccc(Cl)cc2Cl)c1	inconclusive: 35.5 µM [inhibitor, single point]	–
NC(=S)N=Nc1c(O)n(CCCl)c2ccc(Cl)cc12	inconclusive: 39.8 µM [quencher, single point]	–
C=CCOc1c(Br)cc(CNc2ccc(NC(=O)CCC)cc2)cc1OCC	inconclusive: 15.8 µM [quencher, side channel, partial curve]	–
